# The supplement of paper PMC4604168 (melanoma cell lines)
# Some of the results follow. Many values rest on one well or one pass, so single values are uncertain.
# Tests used:
# Experiment in all cases: cell count relative to DMSO control; melanoma cells; higher = more viable cells
# Conditions in all cases: library dose: low library concentration; 72 h
# MZ2-MEL = tested on: MZ2-MEL
# MeWo = tested on: MeWo
# RPMI7951 = tested on: RPMI7951
# RVH-421 = tested on: RVH-421
# SkMel28 = tested on: SkMel28
# SkMel2 = tested on: SkMel2
# SkMel30 = tested on: SkMel30
# SkMel5 = tested on: SkMel5
# UACC257 = tested on: UACC257
# UACC62 = tested on: UACC62
# 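Further: cell number obtained by counting DAPI-stained nuclei in high-throughput microscope images with image analysis software, screen run in 1,536-well plates.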
Compound,cell count (MZ2-MEL) [%],cell count (MeWo) [%],cell count (RPMI7951) [%],cell count (RVH-421) [%],cell count (SkMel28) [%],cell count (SkMel2) [%],cell count (SkMel30) [%],cell count (SkMel5) [%],cell count (UACC257) [%],cell count (UACC62) [%]
"COc1ccc(C2=N[C@@H](c3ccc(Cl)cc3)[C@@H](c3ccc(Cl)cc3)N2C(=O)N2CCNC(=O)C2)c(OC(C)C)c1 [Nutlin-3] + Cn1cc(/C=C2\C(=O)Nc3cccnc32)c2ccccc21 [GW441756] (first compound 0.1 µM, partner dose 0.4 µM)",90.6,102,102,115,91.3,110,96.8,81,73.7,87.7
"COc1ccc(C2=N[C@@H](c3ccc(Cl)cc3)[C@@H](c3ccc(Cl)cc3)N2C(=O)N2CCNC(=O)C2)c(OC(C)C)c1 [Nutlin-3] + Cn1cncc1[C@@](N)(c1ccc(Cl)cc1)c1ccc2c(c1)c(-c1cccc(Cl)c1)cc(=O)n2C [tipifarnib] (first compound 0.1 µM, partner dose 0.01 µM)",93,88.7,93.3,85.2,67,80.6,121,100,80.6,72.2
"Cc1cn(-c2cc(NC(=O)c3ccc(C)c(Nc4nccc(-c5cccnc5)n4)c3)cc(C(F)(F)F)c2)cn1 [nilotinib] + CO[C@@H]1[C@H](N(C)C(=O)c2ccccc2)C[C@H]2O[C@]1(C)n1c3ccccc3c3c4c(c5c6ccccc6n2c5c31)C(=O)NC4 [Midostaurin] (first compound 0.2 µM, partner dose 0.08 µM)",88.6,83.9,90.3,80.4,101,54.4,73.8,88.9,91.8,61.6
"Cc1cc(Nc2cc(N3CCN(C)CC3)nc(/C=C/c3ccccc3)n2)n[nH]1 + Oc1cc(-c2nc(-c3ccccc3)[nH]c2-c2ccncc2)ccc1Cl [L779450] (first compound 0.04 µM, partner dose 0.2 µM)",76.9,94.6,90.8,94.8,55.5,91.3,95.3,100,84.4,57.2
"Cc1cn(-c2cc(NC(=O)c3ccc(C)c(Nc4nccc(-c5cccnc5)n4)c3)cc(C(F)(F)F)c2)cn1 [nilotinib] + N#Cc1c(O)c2c(-c3ccc(-c4ccccc4O)cc3)csc2[nH]c1=O [A769662] (first compound 0.2 µM, partner dose 2 µM)",103,102,80.2,87.6,107,98.1,87.3,105,92.3,97
"Cn1c(=O)n(-c2ccc(C(C)(C)C#N)cc2)c2c3cc(-c4cnc5ccccc5c4)ccc3ncc21 + COc1cc(Nc2ncc(F)c(Nc3ccc4c(n3)NC(=O)C(C)(C)O4)n2)cc(OC)c1OC [Tamatinib] (first compound 0.004 µM, partner dose 0.4 µM)",95.4,80.7,77.7,99.7,47.9,90.7,85.3,85.1,60.6,69.4
"Cc1cc(Nc2cc(N3CCN(C)CC3)nc(/C=C/c3ccccc3)n2)n[nH]1 + O=C(CCCCCCC(=O)Nc1ccccc1)NO [vorinostat] (first compound 0.04 µM, partner dose 0.08 µM)",105,92,93,94.2,77.8,97.9,112,82.3,87.2,85
"CC(C)C[C@H](NC(=O)[C@H](Cc1ccccc1)NC(=O)c1cnccn1)B(O)O [Bortezomib] + O=c1cc(-c2cccc3c2Sc2ccccc2S3)oc(N2CCOCC2)c1 [KU55933] (first compound 0.001 µM, partner dose 1 µM)",71.9,76,70.9,70.1,84.4,101,76,101,60.9,77.3
"CC(C)C[C@H](NC(=O)[C@H](Cc1ccccc1)NC(=O)c1cnccn1)B(O)O [Bortezomib] + O=S(=O)(c1ccccc1)N(CC(F)(F)F)c1ccc(C(O)(C(F)(F)F)C(F)(F)F)cc1 [T0901317] (first compound 0.001 µM, partner dose 1.4 µM)",51.4,79.9,59,72,64.4,89.4,64.6,92,87.1,60.2
"COc1ccc(C2=N[C@@H](c3ccc(Cl)cc3)[C@@H](c3ccc(Cl)cc3)N2C(=O)N2CCNC(=O)C2)c(OC(C)C)c1 [Nutlin-3] + O=C(O)C(=O)Nc1sc2c(c1C(=O)O)CCNC2 [TCS401] (first compound 0.1 µM, partner dose 1.66667 µM)",100,90.9,106,73.3,87.8,89.3,106,80.3,95.4,92.9
"Cc1cc(Nc2cc(N3CCN(C)CC3)nc(/C=C/c3ccccc3)n2)n[nH]1 + CC(C)(C)c1cnc(CSc2cnc(NC(=O)C3CCNCC3)s2)o1 [SNS-032] (first compound 0.04 µM, partner dose 0.01 µM)",92.4,90.8,95,86.5,92,102,112,106,83.1,72.9
"CC(C)C[C@H](NC(=O)[C@H](Cc1ccccc1)NC(=O)c1cnccn1)B(O)O [Bortezomib] + O=C1NC(=O)/C(=C/c2ccc(-c3ccc(F)cc3O)o2)S1 [AS252424] (first compound 0.001 µM, partner dose 1 µM)",67.5,98.6,74.5,45.8,86.3,96.9,85.5,94,78.1,79.6
"Cc1cc(Nc2cc(N3CCN(C)CC3)nc(/C=C/c3ccccc3)n2)n[nH]1 + COc1cc(N2CCC(N3CCN(C)CC3)CC2)ccc1Nc1ncc(Cl)c(Nc2ccccc2S(=O)(=O)C(C)C)n1 [NVP-TAE684] (first compound 0.04 µM, partner dose 0.08 µM)",98.6,85,93.5,92.9,89.5,84.8,88.3,79,72.1,86.6
"Cn1c(=O)n(-c2ccc(C(C)(C)C#N)cc2)c2c3cc(-c4cnc5ccccc5c4)ccc3ncc21 + Cc1cc([N+](=O)[O-])ccc1NS(=O)(=O)c1cc(Cl)ccc1Cl [FH535] (first compound 0.004 µM, partner dose 1 µM)",88.1,78.1,96.3,80.3,60,81.9,81.7,83.6,88.5,81.9
"COc1ccc(C2=N[C@@H](c3ccc(Cl)cc3)[C@@H](c3ccc(Cl)cc3)N2C(=O)N2CCNC(=O)C2)c(OC(C)C)c1 [Nutlin-3] + CC(C)CCN1c2nc(Nc3cc(F)c(O)c(F)c3)ncc2N(C)C(=O)C1C [BID1870] (first compound 0.1 µM, partner dose 0.2 µM)",103,99.1,104,68.5,89,93.5,86.4,107,101,84.5
"CC(C)C[C@H](NC(=O)[C@H](Cc1ccccc1)NC(=O)c1cnccn1)B(O)O [Bortezomib] + Cc1cc(N2CCOCC2)cc2[nH]c(-c3c(NC[C@@H](O)c4cccc(Cl)c4)cc[nH]c3=O)nc12 [BMS536924] (first compound 0.001 µM, partner dose 0.2 µM)",70.6,83.5,106,67.3,76.7,91.9,74.7,92.9,76.9,73.5
"Cc1cn(-c2cc(NC(=O)c3ccc(C)c(Nc4nccc(-c5cccnc5)n4)c3)cc(C(F)(F)F)c2)cn1 [nilotinib] + Oc1nc(-c2ccc(C(F)(F)F)cc2)nc2c1CSCC2 [XAV939] (first compound 0.2 µM, partner dose 2 µM)",89,102,88.9,103,102,79.3,118,80.5,95.9,101
